Source: PubChem BioAssay (NCATS)
Inconclusive means that the source gave no clear call. Such entries were picked first, then a sample of the others. For some assays here: Potencies of inconclusive entries are doubtful fits and often do not repeat. Active and inactive are the calls of the source. Unless noted, calls follow the shape of the dose curve; as a rule, active = well fitted curve in the direction sought with a large enough effect; inconclusive = small, poorly fitted or top-dose-only effect, or another doubt; inactive = no such curve, though single readings can be large; an effect the other way counts as inactive or inconclusive.

Tests used:
[1] = P-glycoprotein substrates identified in KB-8-5-11 adenocarcinoma cell line, qHTS therapeutic library screen (AID 1346987); also: potency is read from the fitted curve at half-maximal effect; nearly all actives have a fitted effect of over 65% in size
Outline: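 KB-8-5-11: colchicine-selected sub-line of KB-3-1 over-expressing P-gp; assay medium lacked colchicine. 72 h drug exposure at 37 degree C, CellTiter-Glo.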

[2] = qHTS of pediatric cancer cell lines to identify multiple opportunities for drug repurposing: Primary screen for BT-37 cells (AID 1347094);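 also: plate controls were DMSO for no effect and bortezomib for full effect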
Outline: (§1)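 Plated cells (500-1,000 per well, growth media) were allowed to settle for 5 hours, treated with compound dilutions for 48 hours, then lysed with CellTiter-Glo for 15 min at room temperature before luminescence reading.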

[3] = qHTS of pediatric cancer cell lines to identify multiple opportunities for drug repurposing: Primary screen for NB1643 cells (AID 1347099);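 also: plate controls were DMSO neutral control for no effect and bortezomib positive control for full effect; nearly all actives have a fitted effect of over 50% in size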
Outline: as §1

HEK293 = test: Cytotoxic Profiling of Annotated Libraries Using Quantitative High-Throughput Screening (AID 1296008); conditions: Five cell lines viability, CellTiter-Glo ATP luminescence, 48-72 h; max response: hits give low values; also: nearly all actives have a fitted effect of over 60% in size; also: potency is read from the fitted curve at half-maximal effect; as to max response: % is scaled to controls: 0 for no effect and ±100 for the full control effect
Outline: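 Compounds were pin-transferred onto cells and incubated 48 or 72 hr at 37 degree Celsius, 95% humidity. CellTiter-Glo was added, plates sat 10 min at room temperature, then ATP-coupled luminescence was imaged as the viability read-out.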

SKOV3 = test: Primary qHTS to identify gynecologic anti-cancer compounds using libraries of approved drugs and bioactive compounds (AID 1345084); conditions: Gynecologic cancer cell panel viability, ATPlite luminescence, 48 h; series mostly up to 57.5 µM; also: nearly all actives have a fitted effect of over 55% in size; also: potency is read from the fitted curve at half-maximal effect; as to activity change, negative = cytotoxicity: % is scaled to controls: 0 for no effect and ±100 for the full control effect
Outline: (§2)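 Luminescence from the ATPlite ATP-monitoring reagent indicates viable cell number; lower signal means cytotoxicity. Cells received compound 16 h after seeding and were exposed for 48 h across five concentrations.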

[4] = Drug repurposing screens with cells derived from glioblastoma tumor samples (AID 1345199); conditions: GBM patient neurospheres viability, ATP luminescence, 48 h; Potency: tumour line A unless noted; activity, negative = cell killing: at 46 µM (top of the series), tumour line A unless noted; also: potency is read from the fitted curve at half-maximal effect; nearly all actives have a fitted effect of over 40% in size
Outline: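 Four patient lines of CD133+ GBM neurospheres were screened at several concentrations; hits were retested in those lines plus three slower-growing GBM lines, using 48-hour treatment and ATP-based viability.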

[5] = system: Zika virus NS2B-NS3 protease (unlinked complex); test: Primary screen GU Rhodamine qHTS for Zika virus inhibitors: Unlinked NS2B-NS3 protease assay (AID 1347159); also: nearly all actives have a fitted effect of over 60% in size; also: potency is read from the fitted curve at half-maximal effect
Outline: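 Noncovalent NS2B hydrophilic domain–NS3 protease domain complex (25 nM) preincubated 15 min at room temperature with compounds (up to 114 microM) in 10 mM Tris-HCl pH 8.0, 0.01% Tween 20; 1.5 microM Rhodamine110 substrate added, fluorescence change over 15 min fitted to Hill equation.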

[6] = system: Zika virus NS2B-NS3 protease (linked construct); test: Primary screen NINDS Rhodamine qHTS for Zika virus inhibitors (AID 1347160); conditions: activity change, negative = inhibition: at 57.1 µM (top of the series) unless noted; also: nearly all actives have a fitted effect of over 55% in size; also: potency is read from the fitted curve at half-maximal effect
Outline: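 Purified linked NS2B-NS3 protease (NS2B hydrophilic domain joined to NS3 protease by flexible linker), 25 nM in 10 mM Tris-HCl pH 8.0, 0.01% Tween 20. Compounds titrated, 15 min preincubation at room temperature; 1.5 microM Rhodamine110 substrate, FITC fluorescence change over 15 min.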

[7] = Primary qHTS for inhibitors of nuclear receptor binding SET domain protein 2 (NSD2) in an isogenic RCH-ACV NSD2 p.E1099K mutant (9B) (AID 1645876); also: potency is read from the fitted curve at half-maximal effect; nearly all actives have a fitted effect of over 70% in size
[8] = Primary fluorescence-based thiol-reactive (MSTI) qHTS assay for identification of artifact compounds. (AID 1845221);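 also: potency is read from the fitted curve at half-maximal effect; thiol-reactive compounds lower the probe fluorescence signal; nearly all actives have a fitted effect of over 65% in size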
Outline: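 Compounds were incubated 1 h at room temperature in the dark with the MSTI probe (4 uM) in PBS pH 7.4, 2% DMSO. Signals were normalized between Acetyl-MSTI and MSTI.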

[9] = molecular target: Phospholipid hydroperoxide glutathione peroxidase GPX4 (Homo sapiens) (UniProt P36969); test: Primary qHTS Assay for Inhibitors of Recombinant Selenoprotein Glutathione Peroxidase 4 (GPX4) (AID 1845192); also: nearly all actives have a fitted effect of over 65% in size
Outline: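 GR-coupled readout: 100 nM GR, 1 mM GSH, 0.5 mM NADPH; NADPH fluorescence (ex 340/em 450 nm) read at t=0 and after 15 min RT. GPX4 200 nM, preincubated 30 min with compound; substrate 0.5 mM CHP.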

[10] = Primary qHTS for inhibitors of nuclear receptor binding SET domain protein 2 (NSD2) in an RCH-ACV wild type WT cells (2C) (AID 1645877); conditions: activity change, negative = cell killing: at 44.9 µM (top of the series) unless noted; also: nearly all actives have a fitted effect of over 70% in size; also: potency is read from the fitted curve at half-maximal effect
[11] = molecular target: Cytochrome P450 2D6 (Homo sapiens) (UniProt P10635); test: Cytochrome P450 family 2 subfamily D member 6 (CYP2D6) small molecule antagonists: luciferase biochemical (cell-free) qHTS assay (AID 1645840; active = well fitted curve in the direction sought with a large enough effect in the repeat runs; inconclusive = weak or mixed curves; inactive = no such curve, though single readings can be large; an effect the other way counts as inactive or inconclusive; also: % is scaled to controls: 0 for no effect and ±100 for the full control effect; nearly all actives have a fitted effect of over 55% in size)
Outline: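 P450-Glo luminescent screen: recombinant CYP2D6 enzyme–proluciferin substrate mix preincubated with compound 10 min at room temperature, then NADPH regeneration added for 1 h at room temperature. Detection reagent added for 20 min; luciferin light read as relative luminescence units.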

Tov-21-G = test: Primary qHTS to identify gynecologic anti-cancer compounds using libraries of approved drugs and bioactive compounds (AID 1345084); conditions: Gynecologic cancer cell panel viability, ATPlite luminescence, 48 h; activity change, negative = cytotoxicity: at 57.5 µM (top of the series) unless noted; also: nearly all actives have a fitted effect of over 55% in size; also: potency is read from the fitted curve at half-maximal effect; as to activity change, negative = cytotoxicity: % is scaled to controls: 0 for no effect and ±100 for the full control effect
Outline: as §2

Tov112D = test: as above; conditions: Gynecologic cancer cell panel viability, ATPlite luminescence, 48 h; series mostly up to 57.5 µM
Outline: as §2

[12] = molecular target: Calcium and integrin-binding protein 1 (Homo sapiens) (UniProt Q99828); test: Primary qHTS for Identification of Calcium Integrin Binding Protein 1 (CIB1) Competitor (AID 1508620);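 also: GST tagged CIB1 binding a fluorescein labelled alphaIIb integrin peptide tracer; top concentration of the series differs between compounds; % is scaled to controls: 0 for no effect and ±100 for the full control effect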
Outline: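 Fluorescence polarization competition: CIB1-GST (1 uM final) preincubated with compound 15 min at room temperature, then FITC-labeled alphaIIb peptide (100 nM final) added for another 15 min. Polarization read at Ex 480/Em 540.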

[13] = Primary redox qHTS assay for identification of artifact compounds. (AID 1845223); conditions: Amplex Red/HRP redox cycling with DTT, fluorescence; redox activity (% of DA3003): at 53.8 µM (top of the series); also: potency is read from the fitted curve at half-maximal effect
Outline: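 Amplex Red (25 uM) and HRP (250 mU/mL) in HBSS, with compounds for 15 min, then 250 uM DTT for 30 min, room temperature, dark. Fluorescence 525/598 nm read; normalized to DMSO and 10 uM DA3003; Hill fit.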
Tags tell the direction and shape of the fitted curve.

Sequence of UniProt P10635 (P10635 whole entry, looked up): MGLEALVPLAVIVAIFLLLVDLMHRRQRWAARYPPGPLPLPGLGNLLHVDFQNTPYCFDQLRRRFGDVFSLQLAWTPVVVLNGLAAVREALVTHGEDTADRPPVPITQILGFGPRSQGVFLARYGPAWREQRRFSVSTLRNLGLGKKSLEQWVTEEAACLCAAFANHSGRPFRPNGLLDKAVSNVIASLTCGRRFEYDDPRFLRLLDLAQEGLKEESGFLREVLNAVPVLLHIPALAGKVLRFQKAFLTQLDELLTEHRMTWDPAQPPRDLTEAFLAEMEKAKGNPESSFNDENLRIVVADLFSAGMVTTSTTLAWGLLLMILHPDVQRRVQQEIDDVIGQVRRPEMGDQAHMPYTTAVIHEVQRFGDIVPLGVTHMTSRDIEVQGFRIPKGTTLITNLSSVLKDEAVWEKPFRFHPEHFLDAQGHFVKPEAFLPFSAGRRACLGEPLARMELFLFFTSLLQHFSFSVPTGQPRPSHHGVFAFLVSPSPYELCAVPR
Sequence of UniProt P36969 (P36969 whole entry, looked up): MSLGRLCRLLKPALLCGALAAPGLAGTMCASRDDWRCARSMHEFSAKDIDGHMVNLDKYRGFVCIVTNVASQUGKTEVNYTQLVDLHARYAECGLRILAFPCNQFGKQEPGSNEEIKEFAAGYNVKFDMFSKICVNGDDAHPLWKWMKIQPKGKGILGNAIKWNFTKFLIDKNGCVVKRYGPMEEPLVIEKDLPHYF
Sequence of UniProt Q99828 (Q99828 whole entry, looked up): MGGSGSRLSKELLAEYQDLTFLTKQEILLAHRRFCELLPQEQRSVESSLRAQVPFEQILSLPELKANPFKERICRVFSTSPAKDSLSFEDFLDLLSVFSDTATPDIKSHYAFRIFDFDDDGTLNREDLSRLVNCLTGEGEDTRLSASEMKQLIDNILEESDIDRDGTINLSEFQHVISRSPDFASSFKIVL

CC[C@]12CCCN3CCc4c(n(c5ccccc45)[C@@](O)(C(=O)OC)C1)[C@@H]32
Potency [1]: inconclusive: 18.4 µM [inhibitor, single point] | Potency [2]: inactive | Potency [3]: inactive | max response (HEK293): inactive: 0.673% | Potency (SKOV3): inconclusive: 8.91 µM [rising, partial curve] | Potency [4]: active: 17.8 µM

CC(C)=CCc1cc2c(cc1O)OC[C@H]1c3ccc(O)cc3O[C@@H]21
Potency [1]: inconclusive: 4.53 µM [inhibitor, single point] | Potency [5]: inconclusive: 17.8 µM [inhibitor, full curve] | Potency [6]: inconclusive: 28.2 µM [inhibitor, single point] | Potency [7]: inconclusive: 14.2 µM [inhibitor, single point] | Potency [8]: inconclusive: 23.3 µM [inhibitor, single point] | Potency (HEK293): inconclusive: 20.2 µM [inhibitor, single point] | Potency (SKOV3): inactive

Cc1cn2cc(CC(=O)N3CCC4(CC3)CN(Cc3ccc(-n5nccn5)cc3Cl)C4)nc2s1
Potency [5]: inactive | Potency [6]: inactive | Potency [9]: inactive | Potency (HEK293): active: 16.4 µM | Potency (SKOV3): inactive

Nc1c(S(=O)(=O)c2ccccc2)c2nc3ccccc3nc2n1-c1ccc(F)cc1
Potency [10]: inactive | Potency (HEK293): inconclusive: 29.1 µM [inhibitor, single point] | Potency (SKOV3): inconclusive: 5.01 µM [rising, full curve, poor fit]

N#Cc1cccc(C(=O)Nc2cc(-c3ccccc3)nn2-c2ccccc2)c1
Potency [1]: inconclusive: 9.2 µM [inhibitor, partial curve] | Potency [5]: inactive | Potency [6]: inconclusive: 2.82 µM [inhibitor, full curve, poor fit] | Potency [11]: inactive | Potency [7]: inconclusive: 25.8 µM [inhibitor, partial curve] | Potency [10]: inconclusive: 29 µM [inhibitor, single point] | Potency (HEK293): inconclusive: 29.1 µM [inhibitor, single point] | Potency (Tov-21-G): inactive | Potency (Tov112D): inactive

CCC(O)C(C)C1CCC(C(C)C(=O)O)O1 (stereo not drawn)
Potency [5]: inconclusive: 70.8 µM [inhibitor, single point] | Potency [12]: inactive | Potency [13]: inconclusive: 23.8 µM [activator, single point] | max response (HEK293): inactive: -7.28% | Potency (SKOV3): inconclusive: 2.24 µM [rising, partial curve, poor fit]

COc1cc(C(C)=O)c(OC)c2c1OC(C)(C)C=C2
Potency [5]: inactive | Potency (HEK293): inconclusive: 25.9 µM [inhibitor, single point] | Potency (Tov-21-G): inactive
